Reference: paper PMC4336329 (PLoS ONE, 2015)
Screen size: about 310,000 compounds; about 2,200 (0.71%) showed an effect of 50% or more. Effects have a minus sign here. This is one part of the list.

The compounds below were run against human ether-à-go-go-related gene (hERG) potassium channel (human, UniProt Q12809) (assay: primary screen, population patch clamp on CHO cells stably expressing hERG).
Sequence of human ether-à-go-go-related gene (hERG) potassium channel (Q12809 whole entry, looked up): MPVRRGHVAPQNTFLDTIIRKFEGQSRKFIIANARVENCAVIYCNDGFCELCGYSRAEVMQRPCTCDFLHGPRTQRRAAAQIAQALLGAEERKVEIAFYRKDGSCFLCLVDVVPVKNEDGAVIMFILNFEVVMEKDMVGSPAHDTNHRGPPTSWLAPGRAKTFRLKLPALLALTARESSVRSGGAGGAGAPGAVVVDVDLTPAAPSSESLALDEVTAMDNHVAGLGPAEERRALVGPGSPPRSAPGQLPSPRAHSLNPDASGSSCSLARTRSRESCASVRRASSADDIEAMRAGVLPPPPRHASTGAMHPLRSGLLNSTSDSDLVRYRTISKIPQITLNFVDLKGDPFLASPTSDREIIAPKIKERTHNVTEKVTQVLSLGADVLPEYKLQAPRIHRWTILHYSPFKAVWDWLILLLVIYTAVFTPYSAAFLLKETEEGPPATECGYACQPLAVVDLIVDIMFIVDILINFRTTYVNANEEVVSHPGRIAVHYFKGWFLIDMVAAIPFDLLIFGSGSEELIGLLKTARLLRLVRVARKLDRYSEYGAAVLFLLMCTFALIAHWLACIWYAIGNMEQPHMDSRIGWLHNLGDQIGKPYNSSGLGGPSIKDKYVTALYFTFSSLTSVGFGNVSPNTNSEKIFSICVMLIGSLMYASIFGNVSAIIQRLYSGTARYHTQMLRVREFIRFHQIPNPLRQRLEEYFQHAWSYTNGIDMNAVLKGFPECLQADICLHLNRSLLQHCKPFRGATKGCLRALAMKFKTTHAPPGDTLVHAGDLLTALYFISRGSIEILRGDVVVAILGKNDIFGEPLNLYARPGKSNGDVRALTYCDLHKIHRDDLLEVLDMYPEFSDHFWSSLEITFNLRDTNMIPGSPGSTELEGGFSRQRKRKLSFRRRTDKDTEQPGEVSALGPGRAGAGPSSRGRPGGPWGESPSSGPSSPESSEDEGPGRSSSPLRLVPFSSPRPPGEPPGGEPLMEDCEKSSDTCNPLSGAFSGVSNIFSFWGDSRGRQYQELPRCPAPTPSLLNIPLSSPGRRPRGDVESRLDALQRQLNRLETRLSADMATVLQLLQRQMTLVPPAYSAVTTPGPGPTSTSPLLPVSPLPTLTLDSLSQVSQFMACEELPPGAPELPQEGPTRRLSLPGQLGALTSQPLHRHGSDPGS

Structure (SMILES)	hERG current change (%, negative = inhibition) at 1uM
O=S1(=O)CCO[C@H]2Cc3ccccc3[C@H]2N1Cc1ccccc1F	2.14%
CCc1ccc2[nH]c(C(=O)Nc3ccc4c(c3)OCO4)cc2c1	15.8%
CCc1ccc(C2C(C(=O)O)c3ccccc3C(=O)N2C)cc1 (stereo not shown)	0.852%
CC1(O)N(Cc2ccccc2)C(=O)OC12CCCCC2 (stereo not shown)	6.86%
O=C(NC1(Cc2ccc(O)cc2)CCCCC1)c1ccccc1	8.73%
CC[C@@H]1Cc2cc(O)ccc2C2=C1c1ccc(O)cc1C[C@H]2CC	-4.28%
CN1C(=O)N(CN2CCCCC2)C2C1N(C)C(=O)N2CN1CCCCC1 (stereo not shown)	-1.43%
O=C1C=C(c2ccnc3cc(Cl)ccc23)C[C@@H](c2ccc3c(c2)OCO3)C1	9.28%
CCOP(=O)(C#CC(C)(C)C)C(C)(O)c1ccccc1 (stereo not shown)	15.1%
C=CCn1c(-c2cccs2)nc2nc3ccccc3nc21	12.5%
CC(SCc1ccccc1)C(=O)Nc1ccccc1Br (stereo not shown)	8.31%
O=C(NC(=S)NNC(=O)c1cnccn1)c1ccc(F)cc1	8.25%
C=C1CCN([C@@H](Cc2ccccc2)C(=O)NCc2ccc(Cl)c(Cl)c2)S(=O)(=O)c2ccccc21	15.2%
O=C(NCc1ccncc1)c1ccc(Cl)c(S(=O)(=O)N2CCCCC2)c1	11%
Cc1cc(C)n(CC(O)COc2ccccc2Br)n1 (stereo not shown)	15.7%
COc1ccccc1N(CC(O)CN1CCCCC1)S(=O)(=O)c1ccc(C)cc1 (stereo not shown)	2.61%
Cc1ccc(NC(=O)C2CCN(S(=O)(=O)c3ccc4c(c3)OCCO4)CC2)c(O)c1	6.18%
CC(Sc1nc(O)c(-c2ccccc2)c(=O)[nH]1)C(=O)Nc1ccc(Cl)cc1 (stereo not shown)	16.5%
Cc1cc(C)nc(NC(=O)Nc2ccc3c(c2)OCO3)c1	6.32%
COc1ccccc1/C=N/n1c(N)c(S(=O)(=O)c2cccs2)c2nc3ccccc3nc21	8.89%
O=C(Cn1cnc2c(nc3n2CCCCC3)c1=O)Nc1cccc(C(F)(F)F)c1	-14.6%
CN=C1SC(CC(=O)Nc2ccc(C(=O)O)cc2)C(=O)N1C (stereo not shown)	6.36%
Cc1cc(C)n(C2CC(=O)N(c3cc(Cl)cc(Cl)c3)C2=O)n1 (stereo not shown)	10.4%
CC(C)c1nnc(NC(=O)CS(=O)(=O)Cc2ccccc2)s1	8.73%
N#CCN1CCC2(O)CCCCC2C1c1ccc2c(c1)OCO2 (stereo not shown)	-0.991%
